From PubChem BioAssay AID588855 (National Center for Advancing Translational Sciences (NCATS), 2011)
About 5,000 (1.2%) of roughly 410,000 compounds were called active. Inconclusive means that the source gave no clear call. Such entries were picked first, then a sample of the others. The call rests on the fitted dose curve; in most records, active means well fitted inhibition curve with a large enough effect; inconclusive means small, poorly fitted or top-dose-only effect; inactive means no such curve, though single readings can be large or run the other way. Potencies beside an inconclusive call are fits to weak or partial responses and may not hold up. Peptide text beside a SMILES is read from it. * marks the point of attachment. CH2Cl = ClC*

Assay: qHTS for Inhibitors of TGF-b; further: nearly all actives have a fitted effect of over 65% in size
Conditions: HepG2 CAGA-GFP TGF-b/SMAD3 reporter, GFP fluorescence, 18 h, TGF-beta stimulated, 500 pg/mL final; series mostly up to 46.1 µM
Procedure, shortened: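 Read-out: total well GFP (ex488/em500-530) summed from mean per-cell fluorescence. Cells: HEPG2 CAGA-GFP, 1% FBS DMEM, 18 h at 37 degrees C with 500 pg/mL final TGF-beta. Unstimulated wells served as the full-inhibition control; stimulated DMSO wells = 0%.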
Potency means the concentration at half of the fitted maximal effect; tags describe the fitted curve by direction and shape.

| SMILES | Potency |
| --- | --- |
| Oc1cc(CNC2CCCCC2)c(O)cc1CNC1CCCCC1 | inactive |
| CCCCOc1ccc(CSCCNC(=S)Nc2ccccc2)cc1 | active: 7.94 µM |
| CC(C)(C)S(=O)(=O)N1Cc2cc(CO)cc(CCO)c2[C@@H]1CCO | inactive |
| CC(C)(C)c1nc2ccccc2c2nnc(SCC(=O)Nc3nc4ccccc4s3)n12 | inconclusive: 11.2 µM [inhibitor, partial curve, poor fit] |
| CC(=O)NC(CC(C)C)C(=O)NC(Cc1ccccc1)C(=O)CCl (stereo not drawn) (Ac-Leu-Phe-CH2Cl; configuration not given here) | inconclusive: 11.2 µM [inhibitor, partial curve, poor fit] |
| CCCCn1cnc2cc(NCc3ccc(OCC)cc3)ccc21 | active: 10 µM |
| O=C(N/N=C/c1c(F)cccc1Cl)C1CC1 | inactive |
| CS(=O)(=O)Nc1cccc(-c2cc(NC=O)c3ncc(-c4ccc(F)cc4)n3c2)c1 | inconclusive: 11.2 µM [inhibitor, partial curve] |
| COc1cc(-c2[nH]ncc2CN2CCSCC2)cc(OC)c1OC | inactive |
| Cc1ccc(S(=O)(=O)CC(=O)N2CCCCCC2)cc1 | inactive |
| CC(C)Cc1csc(NC(=O)c2ccc(Cl)cc2)c1C(=O)O | inconclusive: 35.5 µM [inhibitor, single point] |
| COc1ccc(N(C(=O)c2ccncc2)S(=O)(=O)c2ccc3c4c(cccc24)C(=O)N3C)cc1 | inconclusive: 35.5 µM [inhibitor, single point] |
| COc1ccc(Oc2nc(-c3ccccn3)nc3ccccc23)cc1 | inconclusive: 35.5 µM [inhibitor, single point] |
| Cc1c(Cl)cccc1NS(=O)(=O)c1ccc(-c2cnc(C3CC3)o2)cc1 | active: 2.82 µM |
| CC1(C(=O)N2Cc3ccccc3C2)CCN1C(=O)C1(c2ccccc2)CC1 (stereo not drawn) | inactive |
| Cc1ccc(C)c(Oc2ncnc(N)c2[N+](=O)[O-])c1 | inactive |
| COc1cccc(NC(=O)/C=C/c2ccco2)c1 | inactive |
| CCCN1CNC(=S)N(c2ccccc2OC)C1 | inactive |
| CC(C)C[C@@H](CN1CCCC1CN1C(=S)NC[C@@H]1Cc1ccc(O)cc1)N1C[C@H](Cc2ccccc2)N(CC2CCCCCC2)C1=S (stereo partly drawn) | active: 15.8 µM |
| O=C(CSc1nc2ccccc2[nH]1)Nc1cc(C(F)(F)F)ccc1N1CCOCC1 | inconclusive: 35.5 µM [inhibitor, single point] |
| CCCc1cnc(Nc2nc(C(N)Cc3ccc(C(F)(F)F)cc3)cs2)nc1 (stereo not drawn) | inconclusive: 35.5 µM [inhibitor, single point] |
| S=c1[nH]nc(-c2cccnc2)n1/N=C/c1cccs1 | inactive |
| NS(=O)(=O)c1ccc(NC(=O)COC(=O)C23CC4CC(CC(C4)C2)C3)cc1 | inconclusive: 11.2 µM [inhibitor, partial curve] |
| Cc1ccc(-n2cc(C(=O)Oc3ccc(F)cc3)c3ccccc3c2=O)cc1 | inactive |

| SMILES | Potency |
| --- | --- |
| CCN(CC)S(=O)(=O)c1cccc(C(=O)N/N=C/c2cccc(O)c2O)c1 | inconclusive: 2.82 µM [inhibitor, full curve] |
| COc1ccccc1CNC(=O)c1[nH]c(C)c(C(C)=O)c1C | inactive |
| CC1CN(C(=O)c2ccccc2)C(=Nc2cccc(S(=O)(=O)N(C)C)c2)S1 (stereo not drawn) | inconclusive: 0.794 µM [inhibitor, full curve] |
| CC(NCC(O)COCc1ccc(Cl)cc1)c1ccccc1 (stereo not drawn) | inactive |
| O=C(CSc1oc(-c2ccccc2)nc1S(=O)(=O)c1ccc(Cl)cc1)c1ccccc1 | inactive |
| CCN(CC)S(=O)(=O)c1cc(NC(=O)c2ccccc2OCc2c(C)noc2C)ccc1C | inactive |
| OC1(c2ccc(OC(F)F)cc2)CSC(=Nc2cccnc2)N1C1CC1 (stereo not drawn) | inactive |
| Cc1cc(=O)oc2cc(OCC(=O)N/N=C/c3ccccc3O)ccc12 | inactive |
| COc1cc(C[C@@H]2C(=O)OC[C@H]2Cc2ccc(OC)c(OC)c2)ccc1O | inconclusive: 0.316 µM [inhibitor, full curve, poor fit] |
| Cc1cccc(C(c2c(C)nn(-c3ccccc3)c2N)c2c(C)nn(-c3ccccc3)c2N)c1 | inconclusive: 4.47 µM [inhibitor, single point] |
| OCCCNCc1ccc(N(c2ccccc2)c2ccccc2)cc1 | inconclusive: 22.4 µM [inhibitor, single point] |
| Cc1cc2c(cc1S(=O)(=O)Nc1ccc(OC(F)(F)F)cc1)OCC(=O)N2 | inconclusive: 35.5 µM [inhibitor, single point] |
| CC(NC(=O)Nc1cccc([N+](=O)[O-])c1)(C(F)(F)F)C(F)(F)F | inconclusive: 3.55 µM [inhibitor, partial curve, poor fit] |
| Cc1ccc(-c2csc(-c3cc4c([nH]c3=O)CC(c3ccccc3)CC4=O)n2)cc1 (stereo not drawn) | inactive |
| O=C(CN(c1ccc(F)cc1)S(=O)(=O)c1ccccc1)NCCSC1CCCCC1 | inconclusive: 35.5 µM [inhibitor, single point] |
| CCC(=O)Oc1c(Sc2ccc(Cl)cc2)c(C)nn1-c1ccccc1 | inconclusive: 35.5 µM [inhibitor, single point] |
| COc1ccccc1/C=C/CN1CCCCC1 | inactive |
| O=C(NCCCN1CCN(c2cccc(Cl)c2)CC1)c1sc2ncccc2c1-n1cccc1 | inconclusive: 22.4 µM [inhibitor, single point] |
| O=C(COC(=O)CSc1ccc2ccccc2c1)NCc1ccc2c(c1)OCO2 | inconclusive: 3.16 µM [inhibitor, single point] |
| COc1ccc2[nH]c3c(NCCN(C(C)C)C(C)C)ncnc3c2c1 | inactive |
| Cc1cccc(NCc2ccc(O)c3ncccc23)c1 | inconclusive: 10 µM [inhibitor, partial curve] |
| CCOC(=O)C1=CCN(S(=O)(=O)c2ccccc2[N+](=O)[O-])C1c1ccc(C)cc1 (stereo not drawn) | inconclusive: 2 µM [inhibitor, full curve, poor fit] |
| COCCNC(=O)C1(C)CCN(Cc2ccc(C(C)C)cc2)C1 (stereo not drawn) | inactive |
| O=C(NC(=O)c1c(F)cccc1F)Nc1cccc(Oc2ncc(Cl)cn2)c1 | inconclusive: 7.08 µM [inhibitor, partial curve] |
